{"source": "the supplement of paper PMC7826260", "note": "The list shows a part of the results. The data describe in vitro nicking of single-stranded DNA by Rep domains (1 h at 37 °C, 3 µM enzyme); the outer parts of the 90-letter strands are left off. Values are log2 of uncut reads against the no-enzyme pool; more negative means more cut, near 0 not cut, and no call is made. Reads are scaled to the total; values above 0 arise when much of the pool is cut.", "data": [{"test_system": "T1, Rep nickase domain of tomato golden mosaic virus", "T1 sequence (protein, residues 1-124, tag omitted)": "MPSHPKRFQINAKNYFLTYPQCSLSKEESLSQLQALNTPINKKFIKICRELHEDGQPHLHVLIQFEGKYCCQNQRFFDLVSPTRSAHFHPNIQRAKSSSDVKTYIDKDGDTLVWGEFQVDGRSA", "assay": "uncleaved DNA left, log2 of reads against the no-enzyme library (log2 ratio); higher = less cleavage (more negative = more Rep cleavage of the k-mer); sequences stand for … in CTCGTCCG…ACCGGAGA", "method": "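A pool of 90-nt single-stranded DNAs with seven random bases just before the constant AC of the nick site (name = the seven bases) was cut by 3 µM recombinant His6-SUMO-tagged Rep nickase domain (300 nM DNA, 50 mM HEPES pH 8.0, 50 mM NaCl, 1 mM MnCl2, 1 h, 37 °C, three replicates). Uncut DNA was amplified and sequenced.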", "values": [{"sequence": "AATCACA", "uncleaved DNA left (log2)": 0.104}, {"sequence": "AGATTCT", "uncleaved DNA left (log2)": 0.0122}, {"sequence": "ACATGTG", "uncleaved DNA left (log2)": 0.083}, {"sequence": "AAAGCAA", "uncleaved DNA left (log2)": 0.0816}, {"sequence": "AGAGTTA", "uncleaved DNA left (log2)": 0.237}, {"sequence": "GTGGCAT", "uncleaved DNA left (log2)": 0.0203}, {"sequence": "GTGCAAT", "uncleaved DNA left (log2)": 0.0732}, {"sequence": "TGTAGTC", "uncleaved DNA left (log2)": 0.0262}, {"sequence": "CCGCCTC", "uncleaved DNA left (log2)": -0.199}, {"sequence": "ACTGCCG", "uncleaved DNA left (log2)": -0.0677}, {"sequence": "ACAAGAG", "uncleaved DNA left (log2)": -0.117}, {"sequence": "TCCCCGG", "uncleaved DNA left (log2)": 0.0516}, {"sequence": "CCACGGG", "uncleaved DNA left (log2)": -0.0172}, {"sequence": "TGGTAAC", "uncleaved DNA left (log2)": 0.128}, {"sequence": "GCTGCAC", "uncleaved DNA left (log2)": -0.0121}, {"sequence": "ACAGAGT", "uncleaved DNA left (log2)": 0.0557}, {"sequence": "TCTGTCC", "uncleaved DNA left (log2)": -0.0931}, {"sequence": "GGGGACT", "uncleaved DNA left (log2)": 0.108}, {"sequence": "CTGTTAC", "uncleaved DNA left (log2)": -0.129}, {"sequence": "AATATAT", "uncleaved DNA left (log2)": 0.0317}, {"sequence": "GGGCTTC", "uncleaved DNA left (log2)": 0.0464}, {"sequence": "CCGCTAT", "uncleaved DNA left (log2)": -0.111}, {"sequence": "ATCGTGT", "uncleaved DNA left (log2)": -0.132}, {"sequence": "TTGATAT", "uncleaved DNA left (log2)": -0.0427}, {"sequence": "GACGCCC", "uncleaved DNA left (log2)": 0.0351}, {"sequence": "AGCCATG", "uncleaved DNA left (log2)": 0.0223}, {"sequence": "GACACTG", "uncleaved DNA left (log2)": -0.0216}, {"sequence": "TTTTTGG", "uncleaved DNA left (log2)": 0.0842}, {"sequence": "TCTTACG", "uncleaved DNA left (log2)": -0.000335}, {"sequence": "GACACCT", "uncleaved DNA left (log2)": -0.14}, {"sequence": "GATAAAG", "uncleaved DNA left (log2)": 0.128}, {"sequence": "CAGCACA", "uncleaved DNA left (log2)": 0.0381}, {"sequence": "ACCGATC", "uncleaved DNA left (log2)": 0.185}, {"sequence": "GAGTCCC", "uncleaved DNA left (log2)": 0.0532}, {"sequence": "CAGCAAA", "uncleaved DNA left (log2)": 0.0717}, {"sequence": "GGTAAGG", "uncleaved DNA left (log2)": 0.152}, {"sequence": "GTTTTCG", "uncleaved DNA left (log2)": -0.0108}, {"sequence": "GTATATG", "uncleaved DNA left (log2)": 0.114}, {"sequence": "CCGTGCA", "uncleaved DNA left (log2)": -0.172}, {"sequence": "ACCGAAA", "uncleaved DNA left (log2)": -0.0466}]}]}
